# Values joined by “and” are separate entries in the source; they are usually repeats but may differ in a detail not shown here. Identical values can stand only once. About 35 (0.05%) of roughly 75,000 compounds were called active. Inconclusive results, whose numbers are uncertain, are shown with a selection of clear calls. The call rests on the fitted dose curve; in most records, active means well fitted inhibition curve with a large enough effect; inconclusive means small, poorly fitted or top-dose-only effect; inactive means no such curve, though single readings can be large or run the other way. Potencies beside an inconclusive call are fits to weak or partial responses and may not hold up. The source holds several records for some structures; these can differ, active in one and inactive in another.
# Target: Breast cancer type 1 susceptibility protein (Homo sapiens) (UniProt P38398)
# Experiment: qHTS Assay for Inhibitors of BRCT-Phosphoprotein Interaction (Green Fluorophore)
# Details: BRCA1 BRCT-phosphopeptide binding, green fluorescence polarization
# Method: NIH Molecular Libraries Screening Centers Network [MLSCN]
# NIH Chemical Genomics Center [NCGC]
# PI Name: Natarajan, Amarnath; University of Texas
# A complex of BRCT (C-terminal portion of BRCA1, MW ~35 kDa, His-tagged) and fluorescently labeled pBACH1 phosphorylated 10 aa peptide fragment of BACH1, a helicase implicated in DNA repair, is incubated with library members. Inhibitors of BRCT-pBACH1 binding are detected by a decrease in the fluorescence polarization (FP) of the fluorophore. In order to minimize the effect of fluorescence artifacts and to increase the overall robustness of the screen, the compound library members were incubated in separate reactions with fluorescein labeled probe-protein complexes. Protein and labeled probes were supplied by Dr. Amarnath Natarajan, Department of Pharmacology and Toxicology, University of Texas Medical Branch Galveston, TX.
# Assay Buffer: 16mM Na2HPO4, 4 mM NaH2PO4, 150 mM NaCl, 1 mM EDTA, 1 mM DTT, 0.02% NaN3, and 0.01% Tween 20 at pH 7.3.
# 100 nM labeled decapeptide/250 nM protein in columns 1, 2, 5 - 48. Titration of unlabeled decapeptide control (from 10 mM, then 1:2 dilution in duplicate) pin-transferred to column 2, rows 1 to 16. Column 1 is neutral.
# Three uL of reagents were dispensed to 1536-well Greiner black solid-bottom plates. Compounds and controls (23 nL) were transferred
# via Kalypsys PinTool. The plates were incubated for 12 min at room temperature, and then read on ViewLux (Perkin-Elmer) High throughput CCD imager using FITC for the fluorescein-labeled decapeptide probe polarization filter sets. During dispense, reagent bottles were kept submerged into 4 deg C water bath and all liquid lines were covered with aluminum foil to minimize probe and protein degradation. All screening operations were performed on a Kalypsys robotic system (Kalypsys, Inc., San Diego, CA) containing one RX-130 and two RX-90 anthropomorphic robotic arms. The timing and order of assay plates passing through the screening system were adjusted such that each compound library plate was assayed against the fluorescein- and rhodamine-labeled assay systems at immediately adjacent time points.
# Potency means the concentration at half of the fitted maximal effect; tags describe the fitted curve by direction and shape.
# UniProt P38398, sequence (P38398 whole entry, looked up): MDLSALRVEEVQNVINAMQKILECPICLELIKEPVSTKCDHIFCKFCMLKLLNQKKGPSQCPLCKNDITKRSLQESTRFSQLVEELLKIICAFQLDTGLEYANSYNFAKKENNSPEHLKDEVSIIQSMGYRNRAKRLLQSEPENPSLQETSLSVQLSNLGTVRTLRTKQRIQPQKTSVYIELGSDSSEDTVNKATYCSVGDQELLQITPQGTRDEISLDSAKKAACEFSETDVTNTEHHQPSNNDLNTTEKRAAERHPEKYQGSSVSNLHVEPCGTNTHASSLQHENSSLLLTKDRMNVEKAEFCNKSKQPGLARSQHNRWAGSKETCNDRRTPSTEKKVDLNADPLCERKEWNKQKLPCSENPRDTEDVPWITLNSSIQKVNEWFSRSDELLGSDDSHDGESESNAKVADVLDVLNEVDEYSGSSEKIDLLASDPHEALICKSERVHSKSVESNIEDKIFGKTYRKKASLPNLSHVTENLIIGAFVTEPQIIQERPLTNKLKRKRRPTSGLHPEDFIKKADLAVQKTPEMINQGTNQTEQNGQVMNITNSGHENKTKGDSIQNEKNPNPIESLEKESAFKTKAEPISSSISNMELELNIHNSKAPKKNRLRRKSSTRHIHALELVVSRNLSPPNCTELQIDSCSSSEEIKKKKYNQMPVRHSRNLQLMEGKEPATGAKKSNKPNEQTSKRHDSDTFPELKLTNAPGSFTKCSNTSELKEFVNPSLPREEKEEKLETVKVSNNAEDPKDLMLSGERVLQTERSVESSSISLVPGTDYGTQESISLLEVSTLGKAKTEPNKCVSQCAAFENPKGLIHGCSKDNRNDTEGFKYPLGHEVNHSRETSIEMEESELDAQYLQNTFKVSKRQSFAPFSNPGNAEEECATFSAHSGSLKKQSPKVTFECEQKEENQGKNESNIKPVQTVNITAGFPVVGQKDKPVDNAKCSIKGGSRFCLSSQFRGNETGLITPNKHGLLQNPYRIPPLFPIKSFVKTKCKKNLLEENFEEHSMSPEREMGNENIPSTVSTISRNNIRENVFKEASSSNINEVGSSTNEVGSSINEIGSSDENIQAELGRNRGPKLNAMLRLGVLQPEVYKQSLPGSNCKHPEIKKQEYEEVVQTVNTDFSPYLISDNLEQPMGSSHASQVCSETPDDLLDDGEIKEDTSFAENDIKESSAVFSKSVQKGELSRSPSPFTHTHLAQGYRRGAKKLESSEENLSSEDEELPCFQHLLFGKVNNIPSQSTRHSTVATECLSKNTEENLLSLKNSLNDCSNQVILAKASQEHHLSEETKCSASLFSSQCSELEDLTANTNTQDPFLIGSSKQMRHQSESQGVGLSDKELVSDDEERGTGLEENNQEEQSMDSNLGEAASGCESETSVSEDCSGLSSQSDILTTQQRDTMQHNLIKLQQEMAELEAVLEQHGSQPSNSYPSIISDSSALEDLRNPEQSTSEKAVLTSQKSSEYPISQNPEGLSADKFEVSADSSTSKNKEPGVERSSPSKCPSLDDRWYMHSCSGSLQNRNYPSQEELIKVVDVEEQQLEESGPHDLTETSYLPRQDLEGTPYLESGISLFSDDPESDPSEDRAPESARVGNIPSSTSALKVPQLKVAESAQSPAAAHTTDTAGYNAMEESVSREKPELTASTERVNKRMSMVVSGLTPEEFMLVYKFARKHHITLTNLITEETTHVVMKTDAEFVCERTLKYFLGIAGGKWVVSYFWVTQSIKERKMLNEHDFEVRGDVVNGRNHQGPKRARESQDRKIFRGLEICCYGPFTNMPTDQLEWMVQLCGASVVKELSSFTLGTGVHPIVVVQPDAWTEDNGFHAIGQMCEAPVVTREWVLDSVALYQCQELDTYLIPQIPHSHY
row,SMILES,Potency
1,C[C@@H]1[C@H]2C=C[C@@H]1[C@@H](c1c3ccc(=O)c(O)c-3oc3c(O)c(O)ccc13)[C@@H]2C(=O)O,"inconclusive: 6.31 µM [inhibitor, partial curve]"
2,CN1C[C@@H](C(=O)N[C@@]2(C)O[C@]3(O)C4CCCN4C(=O)[C@@H](Cc4ccccc4)N3C2=O)C=C2c3cccc4[nH]cc(c34)C[C@@H]21 (stereo not given in full),"inconclusive: 39.8 µM [inhibitor, partial curve]"
3,N[C@H](Cc1ccc2oc3cc(=O)c4ccccc4c-3nc2c1)C(=O)O,"inconclusive: 6.31 µM [inhibitor, single point]"
4,CN(C)[C@@H]1C(=O)C(C(N)=O)=C(O)[C@]2(O)C(=O)C3=C(O)c4c(O)cccc4[C@](C)(O)[C@H]3C[C@@H]12,"inconclusive: 10 µM [inhibitor, single point]"
5,CC[n+]1c(-c2ccccc2)c2cc(N)ccc2c2ccc(N)cc21,"inconclusive: 12.6 µM [inhibitor, partial curve]"
6,CN1C[C@H](C(=O)N[C@]2(C)O[C@@]3(O)[C@@H]4CCCN4C(=O)[C@H](Cc4ccccc4)N3C2=O)C=C2c3cccc4[nH]cc(c34)C[C@H]21,"inconclusive: 15.8 µM [inhibitor, full curve]"
7,N[C@@H](Cc1cc(O)c(O)cc1O)C(=O)O,"inconclusive: 31.6 µM [inhibitor, single point]"
8,CCOC(=O)c1ccc(NC(=O)c2c(O)[nH]c(=O)[nH]c2=O)cc1,active: 12.6 µM
9,CC1=NCCc2c1[nH]c1cc(O)ccc21,active: 12.6 µM and active: 31.6 µM
10,CN(N=O)c1cc(O)ccc1O,"inconclusive: 31.6 µM [inhibitor, single point]"
